Source: the DeepSol protein solubility set

Assay: soluble on expression in E. coli; label from the status in PepcDB or PDB records

Row | Sequence | soluble on expression in E. coli
1 | MAHHHHHHMVRTKKSVPTHNPLSSEPANKTAPSRPSHKQVASSKASNNAATGKGARSQIPQKGMKKTTRIRRPHRYRPGVLALKEIRAYQATTQLLIPKIPFVRVVKEITQLFELPNEQLRYTPEALLALQTASEAYLVSLFEDAYLCSLHANRVTLMPKDIHLARRIRGRD | not soluble
2 | MASTIKEVFAEIAAPVENSHGKVTVVGVGQVGMACAYSILQQNLANELCLVDVVADKLKGEMMDLQHGLAFTRHCTVKADTDYSITAGSKLCVVTAGARQREGETRLSLVQRNVEIFKGIIPQLVKYSPDTCILVVSNPVDVLTYVTWKLSGLPRERVFGSGTNLDSARFRFLLSEKLNIAPSSCHGWIIGEHGDSSVAVWSGVNVAGVTLHEIKPDIGEKTDNEHWEAEIHKKVVDSAYEIIKLKGYTSWAIGLSVAKIAQGIFSNSRNVFALSTNVKGFHGINDDVYLSLPVVLGSAGLTHVVKQQLTEAEVQKLHNSAKALLEVQNGIVM | not soluble
3 | MHHHHHHSSGRENLYFQGLMEKYQKLEKVGEGTYGVVYKAKDSQGRIVALKRIRLDAEDEGIPSTAIREISLLKELHHPNIVSLIDVIHSERCLTLVFEFMEKDLKKVLDENKTGLQDSQIKIYLYQLLRGVAHCHQHRILHRDLKPQNLLINSDGALKLADFGLARAFGIPVRSYTHEVVTLWYRAPDVLMGSKKYSTSVDIWSIGCIFAEMITGKPLFPGVTDDDQLPKIFSILGTPNPREWPQVQELPLWKQRTFQVFEKKPWSSIIPGFCQEGIDLLSNMLCFDPNKRISARDAMNHPYFKDLDPQIMI | soluble
4 | MLSPADKTNVKAAWGKVGAHAGEYGAEAFERMFLSFPTTKTYFPHFDLSHGSAQVKGQGKKVADALTNAVAHVDDMPNALSALSDLHAHKLRVDPVNFKLLSHCLLVTLAAHLPAEFTPAVHASLDKFLASVSTVLTSKYRGGGVLSPADKTNVKAAWGKVGAHAGEYGAEAFERMFLSFPTTKTYFPHFDLSHGSAQVKGQGKKVADALTNAVAHVDDMPNALSALSDLHAHKLRVDPVNFKLLSHCLLVTLAAHLPAEFTPAVHASLDKFLASVSTVLTSKYR | soluble
5 | MPFSNSHNALKLRFPAEDEFPDLSAHNNHMAKVLTPELYAELRAKSTPSGFTLDDVIQTGVDNPGHPYIMTVGCVAGDEESYEVFKDLFDPIIEDRHGGYKPSDEHKTDLNPDNLQGGDDLDPNYVLSSRVRTGRSIRGFCLPPHCSRGERRAIEKLAVEALSSLDGDLAGRYYALKSMTEAEQQQLIDDHFLFDKPVSPLLLASGMARDWPDARGIWHNDNKTFLVWVNEEDHLRVISMQKGGNMKEVFTRFCTGLTQIETLFKSKDYEFMWNPHLGYILTCPSNLGTGLRAGVHIKLPNLGKHEKFSEVLKRLRLQKRGTGGVDTAAVGGVFDVSNADRLGFSEVELVQMVVDGVKLLIEMEQRLEQGQAIDDLMPAQK | soluble
6 | MSNTTWSPTSWHSFKIEQHPTYKDKQELERVKKELHSYPPLVFAGEARNLQERLAQVIDNKAFLLQGGDCAESFSQFSANRIRDMFKVMMQMAIVLTFAGSIPIVKVGRIAGQFAKPRSNATEMLDNEEVLSYRGDIINGISKKEREPNPERMLKAYHQSVATLNLIRAFAQGGLADLEQVHRFNLDFVKNNDFGQKYQQIADRITQALGFMRACGVEIERTPILREVEFYTSHEALLLHYEEPLVRKDSLTNQFYDCSAHMLWIGERTRDPKGAHVEFLRGVCNPIGVKIGPNASVSEVLELCDVLNPRNIKGRLNLIVRMGSKMIKERLPKLLQGVLEEKRHILWSIDPMHGNTVKTSLGVKTRAFDSVLDEVKSFFEIHRAEGSLASGVHLEMTGENVTECIGGSQAITEEGLSCHYYTQCDPRLNATQALELAFLIADMLKKQHA | not soluble
7 | VQLQQSGAELVRPGTSVKLSCKASGYSFTNYWMNWLRELVMTQSPLTLSVTIGQPASISCKSSQSLLYSNGKTYLNWLLQRPGQSPKRLIYLVSKLDSGDPDRFTGSGSGTDFTLKISRVEAEDLGIYYCVQGSHFPPTFGAGTKLELKRADAAPTVSIFPPSSEQLTSGGASVVCFLNNFYPKDINVKWKIDGSERQNGVLNSWTDQDSKDSTYSMSSTLTLTKDEYERHNSYTCEATHKTSTSPIVKSFNRN | soluble
